From article PMC9911399
The other results are listed elsewhere or left out.

What follows are sequences tested against T1, RBFOX1 RRM (Homo sapiens) (UniProt Q9NWB1) (assay: EMSA). Settings: HiTS-Eq, 1 nM pool, 10 min; buffer printed only for the single-RNA assays: 10 mM Tris pH 7.5, 150 mM NaCl, 3.4 mM EDTA, 0.001% NP-40, 30 C.
T1 sequence: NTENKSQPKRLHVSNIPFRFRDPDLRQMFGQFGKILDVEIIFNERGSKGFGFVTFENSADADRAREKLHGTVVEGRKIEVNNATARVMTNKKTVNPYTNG

| Sequence | binding signal (KA relative to UGCAUGU) |
| --- | --- |
| GGGAGACCGGAAUUCAGAUUGUCCCCCCGGAUUAAAUCCCGUCGUAGCCACCA / CAATCTGAATTCCGGTCTCCC / TGGTGGCTACGACGGGATT | 0.00831 |
| GGGAGACCGGAAUUCAGAUUGUCCCCCGGUCUUAAAUCCCGUCGUAGCCACCA / CAATCTGAATTCCGGTCTCCC / TGGTGGCTACGACGGGATT | 0.0435 |
| GGGAGACCGGAAUUCAGAUUGUCCGGUCCUAUUAAAUCCCGUCGUAGCCACCA / CAATCTGAATTCCGGTCTCCC / TGGTGGCTACGACGGGATT | 0.00799 |
| GGGAGACCGGAAUUCAGAUUGUCCCCACCCCUUAAAUCCCGUCGUAGCCACCA / CAATCTGAATTCCGGTCTCCC / TGGTGGCTACGACGGGATT | 0.00159 |
| GGGAGACCGGAAUUCAGAUUGUCCCCUCCCAUUAAAUCCCGUCGUAGCCACCA / CAATCTGAATTCCGGTCTCCC / TGGTGGCTACGACGGGATT | 0.000806 |
| GGGAGACCGGAAUUCAGAUUGUCCGACGGGAUUAAAUCCCGUCGUAGCCACCA / CAATCTGAATTCCGGTCTCCC / TGGTGGCTACGACGGGATT | 0.0133 |
| GGGAGACCGGAAUUCAGAUUGUCCGGGCCCCUUAAAUCCCGUCGUAGCCACCA / CAATCTGAATTCCGGTCTCCC / TGGTGGCTACGACGGGATT | 0.0186 |
| GGGAGACCGGAAUUCAGAUUGUCCCCCUACCUUAAAUCCCGUCGUAGCCACCA / CAATCTGAATTCCGGTCTCCC / TGGTGGCTACGACGGGATT | 0.00333 |
| GGGAGACCGGAAUUCAGAUUGUCCUCCCGACUUAAAUCCCGUCGUAGCCACCA / CAATCTGAATTCCGGTCTCCC / TGGTGGCTACGACGGGATT | 0.00732 |
